Results from US9213031B2, “Use of Cbl as biomarker for identifying subject suitable for treatment with anti-c-Met antibody” (SAMSUNG ELECTRONICS CO., LTD., priority 2012, dated 2015).

Legend:
[1] = biological target: T1, c-Met (Homo sapiens, UniProt P08581); assay: c-Met degradation degree (selection of affinity-matured antibodies); type: cell-based; settings: among the four antibodies selected in Reference Example 1.7
[2] = tested on: Akt; assay: Akt phosphorylation (selection of affinity-matured antibodies); type: cell-based; settings: among the four antibodies selected in Reference Example 1.7
[3] = biological target: T1, c-Met; assay: Affinity for c-Met; type: binding; design: endogenous in cells; host or cells: NCI-H441, MKN45, EBC-1 (also Cbl-siRNA treated), HCC827 ER15; settings: comparison among the four selected antibodies, or of libraries with wild-type
Text: The affinity for c-Met of each library was compared to that of the wildtype. Most libraries were lower in affinity for c-Met, compared to the wild-type. The affinity for c-Met was retained in some mutants.

T1 sequence (P08581 25-1390): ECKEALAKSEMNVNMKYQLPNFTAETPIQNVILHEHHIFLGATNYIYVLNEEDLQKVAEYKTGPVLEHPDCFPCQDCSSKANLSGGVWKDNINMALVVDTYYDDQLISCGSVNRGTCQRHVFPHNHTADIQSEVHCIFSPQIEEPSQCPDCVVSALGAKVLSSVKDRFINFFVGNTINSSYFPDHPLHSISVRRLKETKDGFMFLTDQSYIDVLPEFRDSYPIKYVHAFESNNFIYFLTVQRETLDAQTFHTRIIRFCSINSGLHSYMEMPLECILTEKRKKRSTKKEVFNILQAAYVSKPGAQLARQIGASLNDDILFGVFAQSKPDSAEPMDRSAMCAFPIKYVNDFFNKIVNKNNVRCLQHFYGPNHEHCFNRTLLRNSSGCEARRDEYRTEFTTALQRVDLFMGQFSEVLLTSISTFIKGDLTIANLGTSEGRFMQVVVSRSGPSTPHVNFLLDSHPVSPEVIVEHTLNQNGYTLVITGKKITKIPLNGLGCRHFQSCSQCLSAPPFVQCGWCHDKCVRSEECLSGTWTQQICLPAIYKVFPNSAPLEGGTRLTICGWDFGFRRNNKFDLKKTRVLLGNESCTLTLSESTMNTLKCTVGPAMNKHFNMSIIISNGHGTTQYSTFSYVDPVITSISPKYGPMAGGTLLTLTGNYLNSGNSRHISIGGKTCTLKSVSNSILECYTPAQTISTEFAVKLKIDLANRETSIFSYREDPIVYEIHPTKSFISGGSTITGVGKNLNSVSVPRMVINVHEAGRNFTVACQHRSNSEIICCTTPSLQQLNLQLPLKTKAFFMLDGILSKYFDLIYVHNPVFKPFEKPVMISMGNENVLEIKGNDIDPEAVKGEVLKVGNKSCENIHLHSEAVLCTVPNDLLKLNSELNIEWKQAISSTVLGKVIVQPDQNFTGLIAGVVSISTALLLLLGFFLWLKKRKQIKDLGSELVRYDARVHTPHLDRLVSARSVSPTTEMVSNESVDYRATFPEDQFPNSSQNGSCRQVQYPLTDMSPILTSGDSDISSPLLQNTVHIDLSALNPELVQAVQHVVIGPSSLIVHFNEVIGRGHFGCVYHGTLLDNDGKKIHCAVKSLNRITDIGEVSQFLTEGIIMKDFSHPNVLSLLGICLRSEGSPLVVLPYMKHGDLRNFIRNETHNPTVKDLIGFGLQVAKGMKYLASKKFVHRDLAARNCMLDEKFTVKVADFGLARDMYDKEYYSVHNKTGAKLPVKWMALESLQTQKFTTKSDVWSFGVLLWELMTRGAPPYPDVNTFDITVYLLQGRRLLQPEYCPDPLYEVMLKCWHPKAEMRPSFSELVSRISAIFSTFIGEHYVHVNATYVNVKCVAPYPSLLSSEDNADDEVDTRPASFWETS

c-Met degradation degree [1]: lowest
affinity for c-Met [3]: highest
B1: huAbF46-H4-A1: affinity-matured humanized anti-c-Met antibody, L3-1 origin (antibody)
heavy: EVQLVESGGGLVQPGGSLRLSCAASGFTFTDYYMSWVRQAPGKGLEWLGFIRNKANGYTTEYSASVKGRFTISRDNSKNTLYLQMNSLRAEDTAVYYCARDNWFAYWGQGTLVTVSSASTKGPSVFPLAPSSKSTSGGTAALGCLVKDYFPEPVTVSWNSGALTSGVHTFPAVLQSSGLYSLSSVVTVPSSSLGTQTYICNVNHKPSNTKVDKKVEPKSCDCH[human IgG1 Fc not printed]
light: DIQMTQSPSSLSASVGDRVTITCKSSQSLLASGNQNNYLAWHQQKPGKAPKMLIIWASTRVSGVPSRFSGSGSGTDFTLTISSLQPEDFATYYCQQSYSRPYTFGQGTKVEIKRTVAAPSVFIFPPSDEQLKSGTASVVCLLNNFYPREAKVQWKVDNALQSGNSQESVTEQDSKDSTYSLSSTLTLSKADYEKHKVYACEVTHQGLSSPVTKSFNRGEC
Akt phosphorylation [2]: lowest
